Data on 19 molecules can be found in the supplement of paper PMC10369915.

This is one part of the list. No stated cut-off is given here; in the data, active = 3.2 or more and inactive = the rest. Only a few entries rise above the background.
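Further: displayed peptides selected on beads carrying the immobilized SH2 domain, with library peptides lacking any tyrosine serving as negative controls.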

The first experiment addresses SHP2 C-SH2 domain E139D. The experiment in a line: enrichment score (SH2-bound / input frequency) (ratio); bacterial display of known human phosphotyrosine sites (pTyr-Var adds point mutants) read by sequencing; higher = stronger binding; tyrosines were phosphorylated by kinases first. The settings on record: peptide library: pTyr-Var.
In the case of LHAAAYQNALA [UQCRC2_Y182_R183Q], the enrichment score is inactive: 1.51.

Take MVIPNYSSWTE [UROC1_Y185_R188W]: the enrichment score was inactive: 1.28.

Regarding AHLTEYLSTHF [UQCRC1_Y219_D215H_YF], the enrichment score was inactive: 1.02.

Consider MVIPNYSSRTE [UROC1_Y185], for which the enrichment score is inactive: 0.924.

As for FEDTLYTVLHR [UNC13D_Y61_A59T_YF], the enrichment score is inactive: 1.09.

Consider EEETDYTPVWC [UROD_Y30_G25E], for which the enrichment score was inactive: 0.676.

For LPPGTYPSDFT [UNC5B_Y511_A516T], the enrichment score was inactive: 0.431.

In the case of KMMGRYEMFAR [UPB1_Y362_T359M_YF], the enrichment score was inactive: 1.48.

KMTGRYEMYAR [UPB1_Y362]: the enrichment score was inactive: 1.11.

On to GVIKEYQIRQV [USH2A_Y3623], for which the enrichment score is inactive: 0.886.

For the molecule FEDALYTVLHR [UNC13D_Y61_YF], the enrichment score was inactive: 1.05.

As to GADAIYDHVNE [UQCR10_Y44_I47V], the enrichment score was inactive: 0.547.

Regarding CGQDPYIRELG [UROS_Y19], the enrichment score is inactive: 0.711.

For LHAAAYWNALA [UQCRC2_Y182_R183W], the enrichment score was inactive: 1.58.

As for GQKTLYSFFSP [UNG_Y8], the enrichment score is inactive: 1.19.

Take ADLTEYLSTHY [UQCRC1_Y219]: the enrichment score is inactive: 0.846.

As for QRALLYEDALF [UNC13D_Y56_YF], the enrichment score was inactive: 0.894.

On to DSILVYQRKEQ [USH2A_Y1909_G1911R], for which the enrichment score is inactive: 0.687.

With LPPGTYPSDFA [UNC5B_Y511], the enrichment score was inactive: 0.688.

Another experiment addresses SHP2 C-SH2 domain wild-type. The experiment is described as above. The settings on record: peptide library: pTyr-Var.
LHAAAYQNALA [UQCRC2_Y182_R183Q]: the enrichment score was inactive: 1.28.

MVIPNYSSWTE [UROC1_Y185_R188W]: the enrichment score was inactive: 1.03.

As to AHLTEYLSTHF [UQCRC1_Y219_D215H_YF], the enrichment score was inactive: 1.24.

With MVIPNYSSRTE [UROC1_Y185], the enrichment score is inactive: 0.796.

With FEDTLYTVLHR [UNC13D_Y61_A59T_YF], the enrichment score was inactive: 1.38.

With EEETDYTPVWC [UROD_Y30_G25E], the enrichment score is inactive: 0.852.

Consider LPPGTYPSDFT [UNC5B_Y511_A516T], for which the enrichment score is inactive: 0.57.

As for KMMGRYEMFAR [UPB1_Y362_T359M_YF], the enrichment score was inactive: 1.24.

As to KMTGRYEMYAR [UPB1_Y362], the enrichment score is inactive: 1.11.

For GVIKEYQIRQV [USH2A_Y3623], the enrichment score is inactive: 0.625.

For FEDALYTVLHR [UNC13D_Y61_YF], the enrichment score is inactive: 0.973.

Turning to GADAIYDHVNE [UQCR10_Y44_I47V], the enrichment score is inactive: 0.526.

Take CGQDPYIRELG [UROS_Y19]: the enrichment score is inactive: 1.01.

Turning to LHAAAYWNALA [UQCRC2_Y182_R183W], the enrichment score is inactive: 1.9.

Take GQKTLYSFFSP [UNG_Y8]: the enrichment score is inactive: 1.54.

With ADLTEYLSTHY [UQCRC1_Y219], the enrichment score was inactive: 0.775.

Take QRALLYEDALF [UNC13D_Y56_YF]: the enrichment score is inactive: 0.882.

Consider DSILVYQRKEQ [USH2A_Y1909_G1911R], for which the enrichment score is inactive: 0.606.

On to LPPGTYPSDFA [UNC5B_Y511], for which the enrichment score was inactive: 0.789.

In another experiment the target is SHP2 N-SH2 domain L43F. The description is as above. To be noted: peptide library: pTyr-Var.
Turning to LHAAAYQNALA [UQCRC2_Y182_R183Q], the enrichment score is inactive: 1.51.

Turning to MVIPNYSSWTE [UROC1_Y185_R188W], the enrichment score was inactive: 0.868.

On to AHLTEYLSTHF [UQCRC1_Y219_D215H_YF], for which the enrichment score is inactive: 1.05.

Regarding MVIPNYSSRTE [UROC1_Y185], the enrichment score is inactive: 0.929.

As to FEDTLYTVLHR [UNC13D_Y61_A59T_YF], the enrichment score is inactive: 1.23.

On to EEETDYTPVWC [UROD_Y30_G25E], for which the enrichment score is inactive: 0.529.

Take LPPGTYPSDFT [UNC5B_Y511_A516T]: the enrichment score was inactive: 0.816.

Take KMMGRYEMFAR [UPB1_Y362_T359M_YF]: the enrichment score was inactive: 1.42.

Take KMTGRYEMYAR [UPB1_Y362]: the enrichment score was inactive: 1.06.

As to GVIKEYQIRQV [USH2A_Y3623], the enrichment score was inactive: 0.757.

As to FEDALYTVLHR [UNC13D_Y61_YF], the enrichment score is inactive: 1.41.

As to GADAIYDHVNE [UQCR10_Y44_I47V], the enrichment score is inactive: 0.634.

As to CGQDPYIRELG [UROS_Y19], the enrichment score is inactive: 0.881.

Regarding LHAAAYWNALA [UQCRC2_Y182_R183W], the enrichment score was inactive: 1.56.

As to GQKTLYSFFSP [UNG_Y8], the enrichment score is inactive: 1.19.

ADLTEYLSTHY [UQCRC1_Y219]: the enrichment score is inactive: 0.828.

Regarding QRALLYEDALF [UNC13D_Y56_YF], the enrichment score was inactive: 1.14.

With DSILVYQRKEQ [USH2A_Y1909_G1911R], the enrichment score is inactive: 0.604.

In the case of LPPGTYPSDFA [UNC5B_Y511], the enrichment score is inactive: 0.768.

A further experiment has as its target SHP2 N-SH2 domain T42A. The experiment is described as above. The settings on record: peptide library: pTyr-Var.
Regarding LHAAAYQNALA [UQCRC2_Y182_R183Q], the enrichment score is inactive: 1.12.

Consider MVIPNYSSWTE [UROC1_Y185_R188W], for which the enrichment score was inactive: 1.24.

As for AHLTEYLSTHF [UQCRC1_Y219_D215H_YF], the enrichment score was inactive: 2.27.

MVIPNYSSRTE [UROC1_Y185]: the enrichment score was inactive: 0.626.

With FEDTLYTVLHR [UNC13D_Y61_A59T_YF], the enrichment score is inactive: 0.89.

Regarding EEETDYTPVWC [UROD_Y30_G25E], the enrichment score was inactive: 0.77.

In the case of LPPGTYPSDFT [UNC5B_Y511_A516T], the enrichment score is inactive: 0.563.

On to KMMGRYEMFAR [UPB1_Y362_T359M_YF], for which the enrichment score was inactive: 1.37.

Regarding KMTGRYEMYAR [UPB1_Y362], the enrichment score is inactive: 1.1.

Regarding GVIKEYQIRQV [USH2A_Y3623], the enrichment score was inactive: 0.549.

Consider FEDALYTVLHR [UNC13D_Y61_YF], for which the enrichment score was inactive: 1.04.

As to GADAIYDHVNE [UQCR10_Y44_I47V], the enrichment score is inactive: 0.471.

As for CGQDPYIRELG [UROS_Y19], the enrichment score is inactive: 0.789.

On to LHAAAYWNALA [UQCRC2_Y182_R183W], for which the enrichment score was inactive: 2.3.

In the case of GQKTLYSFFSP [UNG_Y8], the enrichment score is inactive: 1.32.

As for ADLTEYLSTHY [UQCRC1_Y219], the enrichment score was inactive: 0.736.

In the case of QRALLYEDALF [UNC13D_Y56_YF], the enrichment score was inactive: 1.53.

As for DSILVYQRKEQ [USH2A_Y1909_G1911R], the enrichment score was inactive: 0.446.

For the molecule LPPGTYPSDFA [UNC5B_Y511], the enrichment score was inactive: 0.554.

Another experiment has as its target SHP2 N-SH2 domain T52S. Described as above. To be noted: peptide library: pTyr-Var.
With LHAAAYQNALA [UQCRC2_Y182_R183Q], the enrichment score is inactive: 1.32.

Regarding MVIPNYSSWTE [UROC1_Y185_R188W], the enrichment score is inactive: 1.17.

Take AHLTEYLSTHF [UQCRC1_Y219_D215H_YF]: the enrichment score is inactive: 1.2.

Turning to MVIPNYSSRTE [UROC1_Y185], the enrichment score was inactive: 1.09.

On to FEDTLYTVLHR [UNC13D_Y61_A59T_YF], for which the enrichment score was inactive: 1.06.

With EEETDYTPVWC [UROD_Y30_G25E], the enrichment score was inactive: 0.553.

Turning to LPPGTYPSDFT [UNC5B_Y511_A516T], the enrichment score was inactive: 0.632.

Take KMMGRYEMFAR [UPB1_Y362_T359M_YF]: the enrichment score was inactive: 1.56.

As for KMTGRYEMYAR [UPB1_Y362], the enrichment score is inactive: 1.08.

On to GVIKEYQIRQV [USH2A_Y3623], for which the enrichment score was inactive: 0.61.

Regarding FEDALYTVLHR [UNC13D_Y61_YF], the enrichment score is inactive: 1.16.

With GADAIYDHVNE [UQCR10_Y44_I47V], the enrichment score was inactive: 0.515.

CGQDPYIRELG [UROS_Y19]: the enrichment score is inactive: 0.775.

Turning to LHAAAYWNALA [UQCRC2_Y182_R183W], the enrichment score is inactive: 1.74.

Take GQKTLYSFFSP [UNG_Y8]: the enrichment score was inactive: 1.13.

Turning to ADLTEYLSTHY [UQCRC1_Y219], the enrichment score is inactive: 0.893.

Regarding QRALLYEDALF [UNC13D_Y56_YF], the enrichment score was inactive: 1.09.

DSILVYQRKEQ [USH2A_Y1909_G1911R]: the enrichment score is inactive: 0.795.

As for LPPGTYPSDFA [UNC5B_Y511], the enrichment score is inactive: 0.691.

In the next experiment the target is SHP2 N-SH2 domain wild-type. The experiment is described as above. To be noted: peptide library: pTyr-Var.
Consider LHAAAYQNALA [UQCRC2_Y182_R183Q], for which the enrichment score was inactive: 1.29.

Consider MVIPNYSSWTE [UROC1_Y185_R188W], for which the enrichment score is inactive: 1.12.

AHLTEYLSTHF [UQCRC1_Y219_D215H_YF]: the enrichment score was inactive: 1.1.

For the molecule MVIPNYSSRTE [UROC1_Y185], the enrichment score is inactive: 0.969.

In the case of FEDTLYTVLHR [UNC13D_Y61_A59T_YF], the enrichment score was inactive: 1.82.

Turning to EEETDYTPVWC [UROD_Y30_G25E], the enrichment score is inactive: 1.02.

For the molecule LPPGTYPSDFT [UNC5B_Y511_A516T], the enrichment score was inactive: 0.407.

In the case of KMMGRYEMFAR [UPB1_Y362_T359M_YF], the enrichment score was inactive: 1.41.

For the molecule KMTGRYEMYAR [UPB1_Y362], the enrichment score was inactive: 0.993.

Take GVIKEYQIRQV [USH2A_Y3623]: the enrichment score was inactive: 0.784.

On to FEDALYTVLHR [UNC13D_Y61_YF], for which the enrichment score was inactive: 1.23.

With GADAIYDHVNE [UQCR10_Y44_I47V], the enrichment score is inactive: 0.571.

As to CGQDPYIRELG [UROS_Y19], the enrichment score is inactive: 1.38.

In the case of LHAAAYWNALA [UQCRC2_Y182_R183W], the enrichment score was inactive: 2.07.

As for GQKTLYSFFSP [UNG_Y8], the enrichment score is inactive: 1.19.

ADLTEYLSTHY [UQCRC1_Y219]: the enrichment score was inactive: 0.808.

QRALLYEDALF [UNC13D_Y56_YF]: the enrichment score is inactive: 0.959.

In the case of DSILVYQRKEQ [USH2A_Y1909_G1911R], the enrichment score is inactive: 0.651.

On to LPPGTYPSDFA [UNC5B_Y511], for which the enrichment score is inactive: 0.9.
